Test results taken from paper PMC9381633.
Positions count from the first letter of the chain named. Results are given in words; binding and its absence hold for the method and conditions named. For some of these results: In cells and extracts the contact can be indirect. Some binding calls cover weakened binding; strength is not graded here. For some of these results: Tags and fused reporters may be left off the sequences shown.

By UniProt entry, the sequences of proteins in these tests, tags left out.
UniProt O14994: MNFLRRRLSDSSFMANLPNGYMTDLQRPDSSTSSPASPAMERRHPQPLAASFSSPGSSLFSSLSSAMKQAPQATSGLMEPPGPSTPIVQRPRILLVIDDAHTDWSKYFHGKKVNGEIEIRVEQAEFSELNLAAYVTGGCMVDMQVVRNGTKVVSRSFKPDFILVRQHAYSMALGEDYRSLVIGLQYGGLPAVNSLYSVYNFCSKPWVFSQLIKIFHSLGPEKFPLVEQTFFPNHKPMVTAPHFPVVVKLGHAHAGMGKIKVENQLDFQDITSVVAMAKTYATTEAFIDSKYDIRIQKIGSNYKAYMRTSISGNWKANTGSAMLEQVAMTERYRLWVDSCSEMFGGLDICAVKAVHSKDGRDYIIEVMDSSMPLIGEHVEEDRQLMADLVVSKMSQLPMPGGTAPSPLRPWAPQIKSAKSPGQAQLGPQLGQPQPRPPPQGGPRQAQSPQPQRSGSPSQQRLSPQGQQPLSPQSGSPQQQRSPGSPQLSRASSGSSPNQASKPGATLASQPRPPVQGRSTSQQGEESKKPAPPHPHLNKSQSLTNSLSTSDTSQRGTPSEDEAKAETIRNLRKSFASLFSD
UniProt O70441: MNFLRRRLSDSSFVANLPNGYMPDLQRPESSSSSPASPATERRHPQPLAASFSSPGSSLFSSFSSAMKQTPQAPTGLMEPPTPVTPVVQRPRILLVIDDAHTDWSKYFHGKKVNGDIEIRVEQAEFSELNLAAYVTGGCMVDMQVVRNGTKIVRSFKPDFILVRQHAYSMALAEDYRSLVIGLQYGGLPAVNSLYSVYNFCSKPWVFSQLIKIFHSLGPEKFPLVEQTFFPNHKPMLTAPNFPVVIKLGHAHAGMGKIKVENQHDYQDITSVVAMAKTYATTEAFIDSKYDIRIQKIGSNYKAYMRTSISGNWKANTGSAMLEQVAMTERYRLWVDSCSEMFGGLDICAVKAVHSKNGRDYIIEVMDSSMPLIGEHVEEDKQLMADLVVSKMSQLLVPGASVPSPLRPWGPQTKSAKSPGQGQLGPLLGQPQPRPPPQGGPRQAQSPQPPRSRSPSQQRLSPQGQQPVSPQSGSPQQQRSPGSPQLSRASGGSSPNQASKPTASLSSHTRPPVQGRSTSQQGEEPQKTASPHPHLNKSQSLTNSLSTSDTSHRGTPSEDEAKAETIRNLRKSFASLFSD
UniProt Q8JZP2: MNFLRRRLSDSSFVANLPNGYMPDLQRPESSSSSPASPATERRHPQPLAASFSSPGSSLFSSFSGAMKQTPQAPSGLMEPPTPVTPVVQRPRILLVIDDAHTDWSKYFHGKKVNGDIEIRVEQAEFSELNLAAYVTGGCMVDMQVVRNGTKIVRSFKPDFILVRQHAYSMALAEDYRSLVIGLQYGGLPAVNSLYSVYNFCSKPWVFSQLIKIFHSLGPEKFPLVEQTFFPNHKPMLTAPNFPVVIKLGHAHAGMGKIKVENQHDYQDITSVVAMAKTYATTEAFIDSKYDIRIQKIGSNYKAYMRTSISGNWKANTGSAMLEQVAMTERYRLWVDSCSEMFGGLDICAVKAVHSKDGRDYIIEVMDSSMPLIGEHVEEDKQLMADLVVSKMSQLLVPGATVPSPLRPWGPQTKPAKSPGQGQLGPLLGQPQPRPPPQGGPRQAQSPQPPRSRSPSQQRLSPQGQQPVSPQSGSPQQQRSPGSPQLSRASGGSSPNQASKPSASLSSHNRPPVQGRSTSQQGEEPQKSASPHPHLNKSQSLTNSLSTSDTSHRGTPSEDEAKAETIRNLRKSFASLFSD

Legend:
[1] = molecular target: T1, Myc-tagged C9orf72L (human) (UniProt Q96LT7); assay: proximity ligation; HEK293 co-transfected (laced with EGFP), fixed; anti-V5 and anti-Myc antibodies; Duolink In Situ Kit; PLA intensity per cell as corrected total cell fluorescence
T1 sequence: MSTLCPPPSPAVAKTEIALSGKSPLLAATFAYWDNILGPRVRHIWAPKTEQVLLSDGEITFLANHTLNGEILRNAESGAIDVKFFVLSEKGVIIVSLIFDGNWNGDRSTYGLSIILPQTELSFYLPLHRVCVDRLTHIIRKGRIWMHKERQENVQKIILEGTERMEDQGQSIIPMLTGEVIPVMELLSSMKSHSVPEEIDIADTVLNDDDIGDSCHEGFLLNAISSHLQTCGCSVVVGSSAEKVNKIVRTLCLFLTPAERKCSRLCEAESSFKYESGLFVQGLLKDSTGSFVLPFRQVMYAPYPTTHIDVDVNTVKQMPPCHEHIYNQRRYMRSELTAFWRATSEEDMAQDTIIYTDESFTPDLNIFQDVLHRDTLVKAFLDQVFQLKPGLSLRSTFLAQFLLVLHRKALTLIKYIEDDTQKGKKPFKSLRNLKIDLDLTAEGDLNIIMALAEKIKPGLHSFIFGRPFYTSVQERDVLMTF

[2] = molecular target: T2, Human C9orf72L fused to the DNA binding domain of GAL4 (bait) (human) (UniProt Q96LT7); assay: two-hybrid; C9orf72L fused to the GAL4 DNA binding domain (pGBKT7) as bait; screen of an arrayed human brain full-length ORF cDNA library of approximately 15,000 clones
T2 sequence: T1 sequence

[3] = molecular target: T3, endogenous C9orf72 (rat hippocampal neurons) (rat (endogenous in primary hippocampal neurons)) (UniProt Q66HC3); assay: proximity ligation; endogenous proteins in 12DIV primary rat hippocampal neurons, fixed; antibody pairs C9orf72/Syn3 or C9orf72/Syn1 with synaptophysin co-stain; Duolink In Situ Kit; spots per image normalised to synaptophysin intensity
T3 sequence: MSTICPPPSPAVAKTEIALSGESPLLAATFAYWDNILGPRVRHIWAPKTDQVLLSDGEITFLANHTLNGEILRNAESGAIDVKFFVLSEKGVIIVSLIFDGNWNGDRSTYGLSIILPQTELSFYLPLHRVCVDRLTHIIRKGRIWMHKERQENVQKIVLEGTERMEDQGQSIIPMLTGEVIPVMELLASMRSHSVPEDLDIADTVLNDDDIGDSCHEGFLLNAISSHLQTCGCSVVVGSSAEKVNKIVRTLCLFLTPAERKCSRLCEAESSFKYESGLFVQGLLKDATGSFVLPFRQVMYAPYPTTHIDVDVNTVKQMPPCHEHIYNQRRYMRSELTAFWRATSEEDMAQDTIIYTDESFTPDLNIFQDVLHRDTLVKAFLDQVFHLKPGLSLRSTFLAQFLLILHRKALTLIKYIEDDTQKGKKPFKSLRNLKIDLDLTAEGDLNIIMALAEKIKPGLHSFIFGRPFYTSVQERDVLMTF

[4] = molecular target: T4, endogenous C9orf72 (mouse brain synaptosomes) (mouse (endogenous in mouse brain synaptosomes)) (UniProt Q6DFW0); assay: co-IP; endogenous proteins; crude synaptosomal fraction (P2') of 12-week-old mouse brains solubilised in 80 mM PIPES pH 6.8, 1% NP-40, IP with 50 mM NaCl, 4 µg anti-C9orf72 antibody 16 h at 4 °C, Protein G Mag Sepharose; controls: irrelevant antibody and C9orf72-KO synaptosomes
T4 sequence: T3 sequence with R191K, L199I

[5] = molecular target: T5, Myc-C9orf72S (human) (UniProt Q96LT7); assay: co-IP; HEK293 co-transfected; lysis in modified BRB80 buffer (80 mM PIPES pH 6.8, 150 mM NaCl, 1% NP-40); immunoprecipitation with anti-Myc antibody and Protein G Sepharose, 4 °C; immunoblot for Myc/C9orf72 and V5
T5 sequence: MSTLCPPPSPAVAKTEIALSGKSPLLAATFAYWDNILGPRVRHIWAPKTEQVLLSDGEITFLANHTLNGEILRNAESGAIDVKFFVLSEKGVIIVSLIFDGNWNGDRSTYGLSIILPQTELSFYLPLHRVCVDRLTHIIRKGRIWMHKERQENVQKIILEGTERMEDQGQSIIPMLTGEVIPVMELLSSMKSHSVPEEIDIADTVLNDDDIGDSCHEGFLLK

[6] = molecular target: T6, Myc-C9orf72ΔLGN (AA 205–481) (human) (UniProt Q96LT7); assay: as above
T6 sequence: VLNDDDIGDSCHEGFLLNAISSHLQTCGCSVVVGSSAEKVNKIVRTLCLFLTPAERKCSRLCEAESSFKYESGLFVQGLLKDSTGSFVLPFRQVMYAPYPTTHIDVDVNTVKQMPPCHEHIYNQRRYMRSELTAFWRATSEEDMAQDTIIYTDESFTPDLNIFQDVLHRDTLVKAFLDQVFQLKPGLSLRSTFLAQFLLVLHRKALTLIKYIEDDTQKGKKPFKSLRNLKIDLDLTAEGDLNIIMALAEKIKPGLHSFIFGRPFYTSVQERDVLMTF

[7] = molecular target: T1, Myc-tagged C9orf72L (human); assay: as above

V5-tagged Syn1a (from UniProt P09951 1-704)
binding [1]: binds

full-length synapsin-3 (two-hybrid library clone) (from UniProt O14994 1-580)
binding [2]: binds

endogenous Syn1 (rat hippocampal neurons) (from UniProt P09951 1-704)
binding [3]: binds

endogenous Syn1 (mouse brain synaptosomes) (from UniProt O88935 1-706)
binding [4]: binds

endogenous Syn3 (rat hippocampal neurons) (from UniProt O70441 1-579)
binding [3]: binds

endogenous Syn3 (mouse brain synaptosomes) (from UniProt Q8JZP2 1-579)
binding [4]: binds

V5-tagged Synapsin-3a (from UniProt O14994 1-580)
binding [1]: binds
binding [5]: binds
binding [6]: no binding
binding [7]: binds
